Data: PMC7999658, “Characterization of P-Glycoprotein Inhibitors for Evaluating the Effect of P-Glycoprotein on the Intestinal Absorption of Drugs” (Pharmaceutics, 2021)
Where two headings read alike, the source gives them in different places.

Key:
P-gp [1] = biological target: T1, P-gp (Homo sapiens, UniProt P08183); experiment: Inhibition of P-gp-mediated transport of paclitaxel across Caco-2 cell monolayers; format: cell-based; details: Caco-2 monolayers; paclitaxel 5 μM; inhibitor concentration to achieve 50% increase of Papp,AB; read-out: IC50 on Papp,AB of paclitaxel
T1 construct: host or cells: Caco-2

P-gp [2] = biological target: T1, P-gp; design: method as in PMID 32193356; details: Caco-2 monolayers; paclitaxel; 50% decrease of Papp,BA; cited from earlier work

T1 sequence (P08183 whole entry): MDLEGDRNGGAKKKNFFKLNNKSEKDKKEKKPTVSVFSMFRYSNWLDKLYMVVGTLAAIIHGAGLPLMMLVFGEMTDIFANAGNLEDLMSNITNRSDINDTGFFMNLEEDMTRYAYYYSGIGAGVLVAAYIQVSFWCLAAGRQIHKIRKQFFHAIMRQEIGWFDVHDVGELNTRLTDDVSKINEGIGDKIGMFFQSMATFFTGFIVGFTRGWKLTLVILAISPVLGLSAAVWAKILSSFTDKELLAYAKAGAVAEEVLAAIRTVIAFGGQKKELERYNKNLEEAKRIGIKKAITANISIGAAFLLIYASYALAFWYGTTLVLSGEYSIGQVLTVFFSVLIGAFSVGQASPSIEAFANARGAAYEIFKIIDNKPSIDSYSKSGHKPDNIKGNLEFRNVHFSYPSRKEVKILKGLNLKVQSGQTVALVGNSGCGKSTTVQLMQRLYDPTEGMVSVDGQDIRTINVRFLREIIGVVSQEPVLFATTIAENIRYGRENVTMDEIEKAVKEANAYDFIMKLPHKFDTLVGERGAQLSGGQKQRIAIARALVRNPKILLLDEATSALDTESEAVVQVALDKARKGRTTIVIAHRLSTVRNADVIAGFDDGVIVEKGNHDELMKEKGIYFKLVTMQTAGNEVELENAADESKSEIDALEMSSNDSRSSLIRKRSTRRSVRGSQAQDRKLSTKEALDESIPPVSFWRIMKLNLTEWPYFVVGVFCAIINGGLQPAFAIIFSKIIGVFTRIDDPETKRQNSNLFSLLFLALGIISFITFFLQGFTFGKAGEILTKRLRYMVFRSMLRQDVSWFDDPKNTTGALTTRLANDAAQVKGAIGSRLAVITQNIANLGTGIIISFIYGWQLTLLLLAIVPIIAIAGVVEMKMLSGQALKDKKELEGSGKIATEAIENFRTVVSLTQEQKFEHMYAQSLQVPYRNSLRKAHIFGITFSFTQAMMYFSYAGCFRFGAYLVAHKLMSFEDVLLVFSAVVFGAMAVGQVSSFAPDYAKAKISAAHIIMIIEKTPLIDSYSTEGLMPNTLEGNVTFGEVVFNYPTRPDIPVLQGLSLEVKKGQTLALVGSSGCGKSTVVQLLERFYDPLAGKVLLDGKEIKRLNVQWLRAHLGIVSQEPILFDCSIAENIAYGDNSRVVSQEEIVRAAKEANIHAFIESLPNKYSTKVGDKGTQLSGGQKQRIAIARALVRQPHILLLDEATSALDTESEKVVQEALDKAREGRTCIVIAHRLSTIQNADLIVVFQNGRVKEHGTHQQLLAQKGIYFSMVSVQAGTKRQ

With `COc1ccc(C(=O)Nc2ccccc2C(=O)Nc2ccc(CCN3CCc4cc(OC)c(OC)cc4C3)cc2)cc1OC` [WK-X-34, N-(2-(4-[2-(6,7-Dimethoxy-3,4-dihydro-1H-isochinolin-2-yl)-ethyl]phenylcarbamoyl)phenyl)-3,4-dimethoxybenzamide] as the molecule, how does the IC50 (P-gp [1]) read?
The IC50 was 0.935 ± 0.033 µM.

And the IC50 (P-gp [2])?
The IC50 was 0.501 ± 0.132 µM.
